# PubChem BioAssay AID493208 (National Center for Advancing Translational Sciences (NCATS), 2011)
# Screen size: about 44,000 compounds; about 340 (0.77%) were called active. Roughly 5% stayed inconclusive and do not appear here. Calls come from the whole dose curve; as a rule, active = well fitted inhibition curve with a large enough effect; inconclusive = small, poorly fitted or top-dose-only effect; inactive = flat fitted curve, though single readings scatter. The list shows a part of the results.
# Assay: Acumen qHTS Assay for Inhibitors of the mTORC1 Signaling Pathway in MEF (Tsc2-/-, p53-/-) Cells: Sytravon;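 note: plate controls were DMSO for no effect and rapamycin for full effect; nearly all actives have a fitted effect of over 50% in size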
# Settings: phospho-rpS6 immunofluorescence/PI, 24 h; series mostly up to 38.3 µM; activity change, negative = inhibition: at the top concentration
# Summary of the method: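 Tsc2-/-, p53-/- mouse embryonic fibroblasts (empty-vector line) exposed to compound 24 hrs at 37 C, fixed, immunostained for phospho-rpS6 and counterstained with propidium iodide. Acumen laser scanning gives % positive cells from Alexa 488/PI ratio, thresholded using 7.5 nM rapamycin; PI count gives viability.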
row,Structure (SMILES),"activity change, negative = inhibition"
1,O=C(Cn1nc(C(F)(F)F)c2c1CCCC2)Nc1ccc(Br)cc1,inactive: -2.36%
2,COc1cccc(CNC(=O)COc2cc(=O)n(C)c3ccccc23)c1,inactive: -0.431%
3,Cc1ccc(-n2nnnc2CNC(=O)c2cc(C(F)(F)F)cc(C(F)(F)F)c2)cc1C,inactive: -22.1%
4,COc1ccc(-n2ncc3c(NC4CCCC4)ncnc32)cc1,inactive: -18.1%
5,COc1ccc(S(=O)(=O)Nc2ccc(-c3cn4c(C)csc4n3)cc2)cc1,inactive: 0%
6,Cc1ccc(N2CCN(S(=O)(=O)c3cccc4ccccc34)CC2)cc1Cl,inactive: 4.96%
7,COc1ccccc1S(=O)(=O)Cc1ccc(C(=O)NCc2ccc(Cl)cc2)o1,inactive: -0.879%
8,O=C(Nc1cccc(C(F)(F)F)c1)c1cc(CN2CCOCC2)on1,inactive: -4.18%
9,CCCCNC(=O)c1ccc2c(c1)ncn2-c1cc(OC)ccc1OC,inactive: 0%
10,CCCNc1ccc(-c2nc(-c3ccccn3)no2)cc1[N+](=O)[O-],inactive: 8.22%
11,O=C(Nc1ccccc1F)c1ccc2c(Cl)c3c(nc2c1)CCC3,inactive: -0.157%
12,COC(=O)c1ccc(NC(=O)CCn2cnnn2)cc1,inactive: -13%
13,CCN(CCCNC(=O)c1nn(-c2ccc(OC)cc2)c(=O)c2c1c1ccccc1n2C)c1ccccc1,inactive: -1.01%
14,CCc1cccc(NC(=O)CCNS(=O)(=O)c2cccc3nonc23)c1,inactive: 0%
15,COc1ccccc1NC(=O)C1=C(C)Nc2nnnn2C1c1ccc(C(F)(F)F)cc1 (stereo unspecified),inactive: 4.51%
16,CC(C)(C)CC(=O)NCC(c1ccc2c(c1)OCO2)N1CCN(c2ccccc2)CC1 (stereo unspecified),inactive: -0.112%
17,O=C1C(c2ccc(F)cc2)N(CCc2ccc(Cl)cc2)C(=O)CN1C1CCCCCC1 (stereo unspecified),inactive: -6.63%
18,CC(=O)c1ccc(NC(=O)c2cc(-c3ccc(C)s3)nc3ccccc23)cc1,inactive: 2.51%
19,CCC(C)NC(=O)Cn1c(=O)n(CCCCCC(=O)NCc2ccccc2Cl)c(=O)c2sccc21 (stereo unspecified),inactive: 12.3%
20,O=C(NCc1cccc(Br)c1)c1cnn(-c2ccc(F)cc2)c1-n1cccc1,inactive: -0.939%
21,COc1cc(NC(=O)N2c3ccccc3Sc3ccccc32)cc(OC)c1,inactive: -2.92%
22,CCOC(=O)N1CCc2c(sc3c2c(=O)n(CCc2ccccc2)c(=O)n3CC(=O)Nc2ccc(C)cc2)C1,inactive: -3.14%
23,CCOC(=O)c1ccc(NC(=O)CSc2ccc3ccccc3n2)cc1,inactive: 3.89%
24,COc1ccccc1C(=O)NCC(c1cccnc1)N1CCc2ccccc2C1 (stereo unspecified),inactive: 8.93%

row,Structure (SMILES),"activity change, negative = inhibition"
1,CCCOC(=O)c1c(NC(=O)C(C)Sc2nc(-c3ccccc3)cc(C(F)(F)F)n2)sc(C(=O)N(C)C)c1C (stereo unspecified),inactive: -13.6%
2,Cc1cccc(N2CCN(C(=O)CN3C(=O)CSc4c3c(C)nn4-c3ccccc3)CC2)c1C,inactive: 0.918%
3,CCOc1ccc(S(=O)(=O)c2c(C(=O)c3ccc(CC)cc3)cnc3ccc(C)cc23)cc1,inactive: 2.75%
4,CCc1ccc(NC(=O)[C@H](Cc2ccccc2)N2Cc3ccccc3C2=O)cc1,inactive: -1.42%
5,COc1cc(NC(=O)CCc2c(C)nn(-c3ccc4nnc(C)n4n3)c2C)cc(OC)c1OC,inactive: -17.2%
6,CCOc1ccc(N2CC(NC(=O)c3cccs3)CC2=O)cc1 (stereo unspecified),inactive: -0.525%
7,Cc1ccc(S(=O)(=O)n2nc(-c3ccccc3)nc2NCc2ccc(Cl)cc2)cc1,inactive: -3.11%
8,COc1ccc(C2C(=O)N(C3CCCCCC3)CC(=O)N2Cc2ccc(C)cc2)cc1 (stereo unspecified),inactive: 8.63%
9,O=C1CC(c2nc(-c3ccc(Cl)cc3)no2)CN1c1ccc2c(c1)OCCO2 (stereo unspecified),inactive: 0.374%
10,O=C(CSc1nc2c([nH]c3ccccc32)c(=O)n1-c1ccccc1)N1CCc2ccccc21,inactive: 0.7%
11,CCOC(=O)c1c(NC(=O)c2cc3ccccc3c(=O)o2)sc2c1CCC(C)C2 (stereo unspecified),inactive: 3.26%
12,COc1ccc(-n2c(=O)c3ccccc3n(CC(=O)Nc3ccccc3OC)c2=O)cc1,inactive: -2.69%
13,Cc1ccc(SCC(=O)Nc2ccc3oc(-c4ccccc4C)nc3c2)cc1,inactive: -2.29%
14,COc1cc(OC)cc(C(=O)Nc2cc3c(cc2N2CCCC2)n(C)c(=O)c(=O)n3C)c1,inactive: 8.91%
15,CCOc1ccc(NC(=O)c2cnc3ccccn3c2=O)cc1,inactive: 2.42%
16,Cc1ccc2c(CC(=O)Nc3c(C(=O)c4ccc(C)c(F)c4)oc4ccccc34)coc2c1,inactive: 2.99%
17,COc1cc(C2CC(=O)Nc3c2c(C)nn3-c2nncc(-c3ccc(C)cc3)n2)cc(OC)c1OC (stereo unspecified),inactive: 0.42%
18,COc1ccc(S(=O)(=O)c2c(O)c3ccc(C(=O)NCc4ccc(F)cc4)cc3[nH]c2=O)cc1,inactive: 3.91%
19,COc1ccc(NC(=O)CSc2nc(-c3ccc(F)cc3)[nH]c2-c2ccc(C)cc2)cc1OC,inactive: -4.79%
20,CC(=O)c1ccc(NC(=O)c2cnn(-c3cccc(F)c3)c2-n2cccc2)cc1,inactive: -6.52%
21,Cc1ccc(CNC(=O)c2cc(C)nc3c2c(C)nn3-c2ccc(C)cc2)cc1,inactive: 0.631%
22,CCOc1ccc(CCNC(=O)c2ccc3c(c2)c(C)c(C)n3Cc2ccccc2)cc1OCC,inactive: -17.9%
23,O=C(Nc1ccc(Oc2ccccc2)cc1)C1CCN(S(=O)(=O)c2ccc(Cl)cc2)CC1,inactive: -9.59%
24,COc1ccccc1NC(=O)CCCc1nnc2n(C)c(=O)c3sccc3n12,inactive: 5.57%

row,Structure (SMILES),"activity change, negative = inhibition"
1,O=S(=O)(c1ccc(Cl)cc1)c1nc(-c2ccco2)oc1SCc1ccc(F)cc1,inactive: -40%
2,COc1ccc(CCN2C(=O)c3[nH]nc(-c4ccccc4O)c3C2c2ccc(OC)cc2)cc1 (stereo unspecified),inactive: -18.9%
3,Cc1ccc2nc3sc(C(=O)NCCCN(C)c4ccccc4)cc3cc2c1,inactive: -2.3%
4,COc1ccccc1CNC(=O)CCC1N=C2c3ccccc3N=C(SCc3ccc(C)cc3C)N2C1=O (stereo unspecified),inactive: -11.7%
5,Fc1cccc(-n2ncc3c2ncn2nc(Cc4ccccc4)nc32)c1,inactive: -8.75%
6,COc1ccc(NC(=O)CN(c2cc(C)cc(C)c2)S(=O)(=O)c2c(C)noc2C)cc1Cl,inactive: 1.54%
7,COc1ccc(-c2nc(SCC(=O)Nc3ccc4c(c3)OCCO4)c(-c3ccc(C)cc3)[nH]2)cc1OC,inactive: -1.7%
8,COc1ccc(NC(=O)CSc2ccc3nc(-c4ccccc4)cn3n2)cc1OC,inactive: -1.1%
9,CC(C)NC(=O)c1nn(-c2ccccc2F)nc1CO,inactive: 0.717%
10,Cc1ccc(CNC(=O)CN2C(=O)COc3ccc(S(=O)(=O)Nc4ccccc4)cc32)cc1,inactive: -9.79%
11,CC(C)(C)OC(=O)N1CCC(c2nnc(SCc3cccc(Cl)c3)o2)CC1,inactive: -1.47%
12,CCc1ccc(NC(=O)CC2C(=O)N(c3cccc(OC)c3)C(=O)N2C2CCCC2)cc1 (stereo unspecified),inactive: -0.478%
13,Cc1cc(C)cc(NC(=O)CSc2nc(-c3ccccc3)c3cc(F)ccc3n2)c1,inactive: -2.33%
14,Cc1ccc2c(c1)-c1ncc(C(=O)c3ccccc3O)cc1CO2,inactive: -14.5%
15,Cc1ccc(C(=O)NC2=NC(c3ccc(C)cc3)CC(=O)N2)cc1 (stereo unspecified),inactive: -0.274%
16,Cc1cc(C)cc(NC(=O)c2cc(CN3CCCC3)on2)c1,inactive: -26.2%
17,CCCCCOC(=O)CSc1ncnc2sc3c(c12)CCC(C)C3 (stereo unspecified),inactive: 1.17%
18,Cc1ccccc1S(=O)(=O)Cc1ccc(C(=O)NC2CCC(C)CC2)o1 (stereo unspecified),inactive: 0.0888%
19,Cc1nc2nc[nH]n2c(=O)c1CCC(=O)Nc1ccc(F)cc1,inactive: -0.386%
20,Cc1ccc(CNC(=O)C2CCN(S(=O)(=O)c3ccc4[nH]c(=O)ccc4c3)CC2)cc1,inactive: -2.4%
21,CCC(C)NC(=O)CSc1nc2cc3c(cc2c(=O)n1CCCCCC(=O)NCc1ccc2c(c1)OCO2)OCO3 (stereo unspecified),inactive: -0.786%
22,Cc1cc(-c2ccc(C)c(S(=O)(=O)NC3CCCCC3)c2)on1,inactive: -3.81%
23,CC1(C)C(=O)N(CC(=O)Nc2cccc(F)c2)c2ccc(S(=O)(=O)N3CCCCC3)cc21,inactive: -3.63%
24,Cc1nn(-c2ccccc2)c2c1N(CC(=O)N1CCN(c3ccc(F)cc3)CC1)C(=O)CS2,inactive: 0%

row,Structure (SMILES),"activity change, negative = inhibition"
1,O=C(Cn1c(=O)n(Cc2cccs2)c(=O)c2cccnc21)Nc1ccc(F)cc1,inactive: -6.25%
2,COc1cccc2cc(C(=O)Nc3ccc(F)c(F)c3)c(=O)oc12,inactive: -1.58%
3,Cc1ccc(Cl)cc1-n1c(=O)c2sc3ccccc3c2n(Cc2ccccc2)c1=O,inactive: -0.0012%
4,CCCCCSc1nnc(-c2ccc(Br)cc2)o1,inactive: -3.17%
5,CCOc1cc(-c2nnc(SCC(=O)NC3CCCC3)nc2-c2ccc(OC)c(OCC)c2)ccc1OC,inactive: 0.0507%
6,CC(C)CCN1C(=O)c2ccccc2CC1(C)C(=O)NC1CCC(C)CC1 (stereo unspecified),inactive: -0.631%
7,O=C(CSc1nccn1C1CCCC1)Nc1ccc(C(F)(F)F)cc1,inactive: -5.21%
8,CC(C)c1ccc(-c2nc(C(N)=O)c3c(n2)n(-c2ccc4c(c2)OCO4)c(=O)n3C)cc1,inactive: -9.76%
9,CCOc1ccc(NC(=O)Cn2cc(S(=O)(=O)NC)c(S(=O)(=O)NC)c2)cc1,inactive: -9.12%
10,COc1ccc(NC(=O)C2CCN(S(=O)(=O)c3ccc4[nH]c5c(c4c3)CCCCC5)CC2)cc1,inactive: 9.17%
11,O=C(Nc1cccc(F)c1)[C@H](CSCc1ccccc1)N1Cc2ccccc2C1=O,inactive: -5.4%
12,CCCCOc1cccc(C(=O)Nc2cccc(-c3nc4ncccc4o3)c2C)c1,inactive: 11.1%
13,CCOC(=O)C1=C(C)NC(=O)NC1c1cn(-c2ccccc2)nc1-c1ccc(OCC)cc1 (stereo unspecified),inactive: 3.12%
14,Cc1ccc(NC(=O)C2CCCN(c3ncnc4onc(-c5ccc(F)cc5)c34)C2)c(Cl)c1 (stereo unspecified),inactive: 1.39%
15,CCC(C)NC(=O)Cn1ccc2cc(S(=O)(=O)N3CCCCC3)ccc21 (stereo unspecified),inactive: 1.09%
16,CSc1ncc(C(=O)N2CCN(c3cc(C)ccc3C)CC2)c(C)n1,inactive: -1.71%
17,Cc1cccc(N2CCN(C(=O)CN3C(=O)COc4ccc(S(=O)(=O)N5CCCCCC5)cc43)CC2)c1C,inactive: -15.2%
18,Cc1oc(-c2ccc(C(=O)NCc3ccc(Cl)cc3)cc2)nc1CS(=O)(=O)c1ccccc1,inactive: -4.76%
19,CCn1c(=N)c(C(=O)NCc2ccccc2)cc2c(=O)n3cc(C)ccc3nc21,inactive: 6%
20,CCCCNC(=O)C(Cc1ccccc1)NS(=O)(=O)c1ccc2c(c1)c(=O)n(C)c(=O)n2C (stereo unspecified),inactive: -3.58%
21,CCC1CN(C(=O)NCc2ccc(C)cc2)c2ccccc2O1 (stereo unspecified),inactive: -21.5%
22,CC(C)c1ccc(N2C(=O)CS(=O)(=O)C23C(=O)N(Cc2cccc(F)c2)c2ccccc23)cc1 (stereo unspecified),inactive: 1.43%
23,CCOc1ccc(-c2ncnn2-c2sc3c(c2C#N)CCCCC3)cc1,inactive: 9.61%
24,Cc1cc(C)c(OCC(=O)N(Cc2ccco2)Cc2ccco2)c(C)c1,inactive: -0.462%
